# Data as given in PubChem BioAssay AID1159614 (National Center for Advancing Translational Sciences (NCATS), 2016).
# Hit rate of the full screen: of about 45,000 compounds, about 65 (0.1%) were called active. Calls come from the whole dose curve; as a rule, active = well fitted activation curve with a large enough effect; inconclusive = small, poorly fitted or top-dose-only effect; inactive = no such curve, though single readings can be large or run the other way. The list shows a part of the results.
# Biological target: Galactocerebrosidase (Homo sapiens) (UniProt P54803)
# UniProt P54803, sequence (P54803 whole entry, looked up): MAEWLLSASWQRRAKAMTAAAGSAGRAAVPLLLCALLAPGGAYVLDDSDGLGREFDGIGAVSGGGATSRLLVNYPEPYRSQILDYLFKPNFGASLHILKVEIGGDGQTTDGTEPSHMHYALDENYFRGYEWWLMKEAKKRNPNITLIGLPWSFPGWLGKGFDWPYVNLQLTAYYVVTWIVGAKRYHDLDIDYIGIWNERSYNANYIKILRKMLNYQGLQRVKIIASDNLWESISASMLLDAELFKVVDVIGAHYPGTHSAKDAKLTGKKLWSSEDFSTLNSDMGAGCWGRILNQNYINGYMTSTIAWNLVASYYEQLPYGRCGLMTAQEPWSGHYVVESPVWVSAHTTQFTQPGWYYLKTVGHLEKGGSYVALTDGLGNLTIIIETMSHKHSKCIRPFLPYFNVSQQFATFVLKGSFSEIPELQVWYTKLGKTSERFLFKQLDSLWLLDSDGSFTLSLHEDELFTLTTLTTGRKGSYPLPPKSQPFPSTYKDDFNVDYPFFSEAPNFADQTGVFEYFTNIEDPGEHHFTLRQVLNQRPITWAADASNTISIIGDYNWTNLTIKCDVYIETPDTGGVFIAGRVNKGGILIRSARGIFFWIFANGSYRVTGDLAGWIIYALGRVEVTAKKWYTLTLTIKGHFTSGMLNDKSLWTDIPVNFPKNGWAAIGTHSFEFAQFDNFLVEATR
# Test: A Novel Cell-Based Assay to Identify Small Molecules for B -Galactocerebrosidase; note: 0% is about no effect; nearly all actives have a fitted effect of over 65% in size
# Settings: 145M-Twi-hGALC-G270D cells (Twitcher mouse brain line with human GALC G270D), HMU-beta-Gal fluorescence, 48 h; series mostly up to 57.5 µM; activation: at the top concentration
# Description: Lysosomal storage diseases (LSDs) are caused by genetic mutations in genes encoding proteins important for normal lysosomal function. Globoid cell leukodystrophy (GLD), mostly known as Krabbe disease, is a prototype of the neurological LSDs caused by deficiency of beta-galactocerebrosidase (GALC). In brain specimens of GLD patients, psychosine levels are substantially elevated. At elevated concentrations, psychosine becomes cytotoxic to neuronal cells, particularly to oligodendrocytes (OLG), neural cells responsible for myelin formation. Therefore, the biochemical disturbances in GLD are manifested by different degrees of brain demyelination resulting in a broad spectrum of neurological manifestations. Most of the FDA-approved therapies are based on enzyme replacement therapeutic (ERT) agents, which treat non-neurological symptoms of Gaucher disease, Fabry disease, few mucopolysaccharidoses and Pompe disease. Unfortunately, in GLD, a primarily neurological LSD, ERT agents, as large molecular weight molecules unable to cross the blood-brain barrier, which makes this an inefficacious therapeutic approach. In GLD, increasing the residual GALC activity just above the critical threshold (~10% of wild type enzymatic activity), the cytotoxic levels of psychosine will be reduced, avoiding the OLGs apoptosis and the subsequent demyelination process. This will translate in disease stabilization and amelioration of GLD patient symptoms.
# A cell-based assay in 1,536-well plate format was developed to implement a quantitative high-throughput screening (qHTS) assay using GLD-disease relevant cells to identify small molecules that produce enhancements of the residual enzymatic activity levels of mutants GALC found and prevalent in GLD patients. Compounds that are active may therefore have some therapeutic application for GLD. After the treatment of live cells for a determined period, using a fluorescent GALC specific substrate, the mutant residual GALC activity is measured. This cell-based qTHS assay was used to screen part of the MLPCN library for small molecule able to increase the mutant GALC enzymatic activity. In this assay, increased fluorescent signal corresponds to enhanced levels of mutant GALC residual enzymatic activity. Activation is the desired outcome for this assay.
# NIH Chemical Genomics Center [NCGC]
# NIH Molecular Libraries Probe Centers Network [MLPCN]
# Assay Submitter (PI): Gustavo Maegawa MD,PhD, University of Florida, Gainesville, FL
# 2)#Two cell lines were established for the assay: 145M-Twi-hGALC-G270D (brain-derived Twitcher cell line stably expressing human GALC-G270D) and 145M-Twi-hGALC-WT (same 145M-Twi stably expressing human GALC wild type). The Twitcher is the murine C57B/6 model for GLD with naturally occurring homozygous nonsense GALC mutation. The 145M-Twi cell line was established at Maegawa lab (Ribbens J et al 2014).
# a.#Media: DMEM/F12 (1:1) with 10% fetal bovine-serum (FBS) with penicillin/streptomycin (PS-1X - 100 I.U./mL of penicillin+100 ug/mL of streptomycin).
# b.#The 6-Hexadecanoylamino-4-methylumbelliferyl-b-D-galactoside (HMU-B-gal) substrate was prepared as per Wiederschain et al 1992. Using 20-mL borosilicate tubes, 2.20 mg of HMU-b-Gal was added in each tube to prepare substrate-film with a final air-nitrogen stream evaporation to remove all diluent solvents.
# c.#The HMUb-Gal substrate buffer consists of 0.2 M Na2HPO4 (sodium phosphate dibasic)/ 0.1 M Citric Acid with the pH adjusted to 5.2 using HCl. Sodium Azide at 0.02% and Sodium Taurocholate (NaTC) at 1 mg/mL were added to this substrate buffer.
# d.#The HMU-b-Gal stopping buffer consist of 0.5 M NaHCO3 (sodium bicarbonate) /0.5 M Na2CO3 (sodium carbonate). […] Triton X-100 at 0.25% was added.
# 4)#Preparation of HMU-b-Gal substrate tubes
# Adding 18.6 mL of the HMUb-Gal substrate buffer to each 20-mL tube (2.20 mg of HMU-b-Gal) will reach a concentration of 0.2 mM. Vortex well the tube until the solution is fully homogenized (clear cloudy solution). […]
row,SMILES,activation
1,Cc1ccc2c(c1)C(Cc1nc3ccccc3c(=O)n1-c1ccc(Br)cc1)C(=O)N2 (centres undefined),inactive: -15.5%
2,O=C(NC(O)C(Cl)(Cl)Cl)NC(O)C(Cl)(Cl)Cl (centres undefined),inactive: -10.3%
3,CCN(CC)CCN1C(=O)CN=C(c2ccccc2F)c2cc(Cl)ccc21,inactive: -10.5%
4,O=C(COc1ccccc1F)N1CCN(Cc2cc(=O)n3nc(-c4ccccc4Cl)sc3n2)CC1,inactive: -17%
5,CC(=O)NC1CCSC1=O (centres undefined),inactive: -16.5%
6,COc1ccc2c(c1OC)C(=O)O[C@H]2[C@@H]1c2cc3c(cc2CCN1C)OCO3,inactive: -11%
7,CC1(C)CC/C(=C/c2ccc(Cl)cc2)C1(O)Cn1cncn1 (centres undefined),inactive: -7.86% [at 114 µM]
8,Cc1cccc(OCC(=O)N2CCN(CCc3ccccn3)CC2)c1,inactive: -12.9%
9,O=C(Nc1ccc(F)c([N+](=O)[O-])c1)c1cccn(Cc2ccccc2)c1=O,inactive: -4.53%
10,CCCCCCC(=O)CCCCCC/C=C/C[C@@H](O)[C@H](O)[C@@](N)(CO)C(=O)O,inactive: -16.7% [at 23.8 µM]
11,COP(=S)(OC)Oc1ccc(Sc2ccc(OP(=S)(OC)OC)cc2)cc1,inactive: -9.68%
12,C[C@]12CC[C@H]3[C@@H](CCC4=CC(=O)CC[C@@H]43)[C@@H]1CC[C@@H]2OC(=O)CCc1ccco1,inactive: -12.2%
13,C[C@]12CC[C@@H]3c4ccc(O)cc4C[C@@H](CCCCCCCCCS(=O)CCCC(F)(F)C(F)(F)F)[C@H]3[C@@H]1CC[C@@H]2O (some centres undefined),inactive: -13.5%
14,Cc1ccc(Cn2cccc(C(=O)Nc3ccc4c(c3)OCO4)c2=O)cc1,inactive: -19.7%
15,C[C@]12C/C(=C/O)C(=O)C[C@@H]1CC[C@@H]1[C@@H]2CC[C@@]2(C)[C@H]1CC[C@]2(C)O,inactive: -11.8%
16,C[C@H]1CNCCc2ccc(Cl)cc21,inactive: -4.79%
17,COc1ccc(-c2nc(CSCC(=O)N3CCN(c4ccc(F)cc4)CC3)c(C)o2)cc1,inactive: -42.6%
18,CCCNC(=O)c1cnn2c(C)c(Cc3c(C)cc(C)cc3C)c(C)nc12,inactive: -42.3%
19,CCCOc1ccc(C2SCC(=O)Nc3c2c(C)nn3-c2cccc(C)c2)cc1OC (centres undefined),inactive: 0.247%
20,COc1cccc(NC(=O)Cn2cc(C(=O)c3ccccc3)c3ccccc32)c1,inactive: 6.05%
21,CNC(C)Cc1ccccc1OC (centres undefined),inactive: -11.7%
22,C=C1C[C@@H]2[C@H](CC[C@]3(C)C(=O)CC[C@@H]23)[C@@]2(C)C=CC(=O)C=C12,inactive: -23.6%
23,CC(=O)[C@H]1CC[C@H]2[C@@H]3CC[C@H]4C[C@H](O)CC[C@]4(C)[C@H]3C(=O)C[C@]12C,inactive: -8.68%
24,CCN(CC)CCSc1nc2ccccc2c(=O)n1-c1ccc(Cl)cc1,inactive: -20.6%
25,Cc1cccc(Cn2cccc(C(=O)Nc3ccc4c(c3)OCCO4)c2=O)c1,inactive: -12.7%
26,COc1ccccc1N1CCNCC1,inactive: -8.86%
27,CCOc1ccc(CN(CCc2ccc3c(c2)OCO3)Cc2cccc(OC)c2)cc1,inactive: -22.9%

row,SMILES,activation
1,COc1ccc(C)cc1NC(=O)N(Cc1ccc2c(c1)OCO2)C1CCN(Cc2ccccc2)CC1,inactive: -8.53%
2,CCOc1ccc(NC(=O)Cn2cc(C(=O)c3ccccc3)c3ccccc32)cc1,inactive: -6.84%
3,CC(C)C12CN3CC(C(C)C)(CN(C1)C3c1ccccn1)C2=O (centres undefined),inactive: -13.6%
4,Cc1ccc(-n2c(/C=C\c3ccc(F)cc3)nc3ccccc3c2=O)cc1Cl,inactive: -10%
5,COc1ccc(C(c2ccc(OC)cc2)C(Cl)(Cl)Cl)cc1,inactive: -15.6% [at 114 µM]
6,CCOC(=O)NC(O)C(Cl)(Cl)Cl (centres undefined),inactive: -14.9%
7,Cc1cccc(-c2nc(CN3C(=O)CN=C(c4ccccc4)c4ccccc43)c(C)o2)c1,inactive: -29.8%
8,Cc1ccc(NC(=O)Cn2cc(C(=O)c3ccccc3)c3ccccc32)cc1,inactive: -25.4%
9,Cn1c(=O)n(C)c2cc(CNCCc3ccc(F)cc3)ccc21,inactive: -29.1%
10,CCOC(=O)C(c1c(O)c2ccccc2oc1=O)c1c(O)c2ccccc2oc1=O,inactive: -16.2%
11,Cc1ccc(Cl)cc1NC(=O)N(Cc1ccc2c(c1)OCO2)C1CCN(Cc2ccccc2)CC1,inactive: -5.91%
12,CCOP(=S)(OCC)Oc1ccc2c(C)c(Cl)c(=O)oc2c1,inactive: -14.2%
13,COC[C@@H](NC(C)=O)C(=O)NCc1ccccc1,inactive: -15.6%
14,Cc1ccc2nc(NC(=O)c3cccn(Cc4ccc(Cl)cc4)c3=O)sc2c1,inactive: -15.7%
15,CN1C(=O)[C@@H](NC(=O)c2cc3ccccc3[nH]2)N=C(c2ccccc2)c2ccccc21,inactive: -0.599%
16,c1cc2c(c(N3CCNCC3)c1)OCCO2,inactive: -14.5%
17,COc1ccc(C(=O)c2c(C)n(CCN3CCOCC3)c3ccccc23)cc1,inactive: -13.6%
18,O=C(O)Cc1ccccc1,inactive: 5.35%
19,CCOC(=O)c1ncn2c1CN(C)C(=O)c1c(I)cccc1-2,inactive: -11.2%
20,Clc1cccc(SC2CCNCC2)n1,inactive: -12.5%
21,CCCCC1C(=O)NC(=O)N(C2CCCCC2)C1=O (centres undefined),inactive: -10.3%
22,Cc1ccc(-n2c(/C=C/c3ccc(Br)s3)nc3ccccc3c2=O)cc1,inactive: -19.1%
23,CC[n+]1c(-c2ccccc2)c2cc(N)ccc2c2ccc(N)cc21,inactive: -14%
24,COc1ccc(Cl)cc1NC(=O)CN1C(=O)CN=C(c2ccccc2)c2cc(Cl)ccc21,inactive: 2.81%
25,NP(N)(=O)NC(=O)c1ccc(F)cc1,inactive: -15.7%
26,O=c1c2ccccc2nc(/C=C/c2cccc3ccccc23)n1-c1ccccc1Cl,inactive: -7.69%
27,Cc1cccc(-n2c(/C=C/c3ccccc3O)nc3ccccc3c2=O)c1,inactive: -7.42%
